PubChem BioAssay AID1346428 (National Center for Advancing Translational Sciences (NCATS), 2018)
“And” between values parts separate entries of the source, which are not always exact repeats. Identical values can stand only once. The campaign covered roughly 48,000 compounds. About 1,200 (2.5%) were called active. Another 2% or so got no clear call; they are omitted.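 The calls were made as follows: active = activation of at least 60% and not above a set upper limit (about 1 call in 100 departs from these limits); inconclusive = activation of 40% to 60%, or above that upper limit; inactive = activation under 40%.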 Some of the results follow.

molecular target: Probable G-protein coupled receptor 32 (Homo sapiens) (UniProt O75388); test: qHTS for Agonists of Human Resolvin D1 Receptor DRV1; conditions: CHO-K1 GPR32 beta-arrestin PathHunter luminescence, 90 min; at 76.9 µM; hits give high values; zero percent set by DMSO-only wells; also: 0% is about no effect
Chain of UniProt O75388 (O75388 whole entry, looked up): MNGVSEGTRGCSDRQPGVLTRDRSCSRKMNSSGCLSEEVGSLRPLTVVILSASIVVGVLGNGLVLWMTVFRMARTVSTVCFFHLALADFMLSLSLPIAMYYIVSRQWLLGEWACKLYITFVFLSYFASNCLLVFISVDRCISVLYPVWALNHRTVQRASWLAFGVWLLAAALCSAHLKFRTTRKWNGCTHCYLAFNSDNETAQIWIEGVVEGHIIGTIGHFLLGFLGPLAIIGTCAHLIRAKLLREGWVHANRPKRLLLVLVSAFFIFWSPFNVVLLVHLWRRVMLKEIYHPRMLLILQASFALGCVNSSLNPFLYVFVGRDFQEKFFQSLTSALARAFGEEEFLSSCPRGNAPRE
Procedure, shortened: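 Engineered CHO-K1 line co-expressing GPR32-ProLink and EA-beta-arrestin. Compound treatment lasted 90 min at 37 °C. Luminescence was recorded after 1 h with substrate at ambient temperature, relative to DMSO basal wells.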

activation, inactive:
C[C@@H]1C[C@H]2[C@@H]3C[C@H](F)C4=CC(=O)C=C[C@]4(C)[C@@]3(F)[C@@H](O)C[C@]2(C)[C@@]1(O)C(=O)CO 49.5%
COC(=O)c1ccc(OCC2c3cc(OC)c(OC)cc3CCN2C(=O)COc2ccc(Cl)cc2)cc1 (stereo unspecified) -0.986%
O=C(c1ccccc1Cl)N1c2ncnn2C2(CCCCC2)[C@@H]2CCCC[C@@H]21 -10.7%
CCOC(=O)c1c(S(=O)(=O)N2CCCC(C(=O)NCc3ccc(Cl)cc3)C2)c(C)n(C)c1C (stereo unspecified) -2.25%
COc1ccc(F)cc1S(=O)(=O)NCCc1csc2nc(-c3cccc(C)c3)nn12 -16.9%
CCOc1cc(-c2nnc(SCC(=O)Nc3ccc(F)c(F)c3)nc2-c2ccc(OC)c(OCC)c2)ccc1OC 9.43%
COc1ccc(S(=O)(=O)N(CCc2ccccc2)CC(=O)Nc2ccc(C)c(C)c2)cc1OC -4.94%
CCC(=O)Nc1nnc(SCc2cc(=O)c3cc(C)ccc3[nH]2)s1 32.3%
O=C(Nc1cccc(-c2nc3ccccc3o2)c1)c1ccc(-c2ccc(Br)cc2)o1 4.21%
O=S(=O)(Nc1ccc(-c2ccc(N3CCCC3)nn2)cc1)c1ccc(Cl)cc1 13.1%
Cc1c(C(=O)OC2CCCC2)[nH]c2c1C(=O)CC(c1ccc(Cl)cc1)C2 (stereo unspecified) -6.19%
CCOc1ccc(CNS(=O)(=O)c2c(C(=O)N3CCC(C)CC3)c(C)n(C)c2C)cc1OC -21.4%
CC(=O)N1CCc2c(sc3c2c(=O)n(-c2ccccc2)c(=O)n3CC(=O)Nc2cccc(C)c2)C1 -10.5%
CC(C)N(C(=O)CSc1nc2ccc(Cl)cc2[nH]1)c1ccccc1 -27.8%
COc1ccccc1CNC(=O)CCCc1nnc2n(CC(C)C)c(=O)c3sccc3n12 -0.591%
COc1ccccc1CNC(=O)CCC1N=C2c3ccccc3N=C(SCc3cccc(Cl)c3)N2C1=O (stereo unspecified) -11.1%
COc1ccc(-c2cc3nc(-c4ccc(C)cc4)cc(C(F)(F)F)n3n2)cc1 0.57%
CCOc1ccc(OCC)c(NS(=O)(=O)c2cc(Br)cc3c2N(C(C)=O)C(C)C3)c1 (stereo unspecified) -12.3%
CC(C)CN(CCCNC(=O)Cn1ncc2c3ccccc3n(C)c2c1=O)CC(C)C -1.17%
COc1ccc(Cl)cc1NC(=O)CCS(=O)(=O)c1nc(-c2cccs2)cc(C(F)(F)F)n1 -46.9%
CCOC(=O)c1ccc(NC(=O)Nc2c[nH]c(=O)[nH]c2=O)cc1 8.65%
Cc1ccc(CNC(=O)c2cc3c(s2)-c2ccccc2SC3)cc1 -15.2%
CCOC(=O)c1cc(-c2ccccc2)n(CC(=O)NC(C)c2ccccc2)c1C (stereo unspecified) 43.3%
CC(C)COc1ccc(C(=O)Nc2cccc(-c3nc4ccccc4[nH]3)c2)cc1 13.7%
Cc1cc(C)cc(NC(=O)CCS(=O)(=O)c2cc3c4c(c2)CCN4C(=O)CC3)c1 -16.9%
CCc1ccc(OC(C)C(=O)N2CCC(c3nc4ccccc4s3)CC2)cc1 (stereo unspecified) 29.4%
CCn1cc(C(=O)N2CCN(c3cccc(C(F)(F)F)c3)CC2)c2cc(OC)c(OC)cc2c1=O 18.1%
O=C(NC1(C(F)(F)F)C(=O)Nc2c1c(=O)[nH]c(=O)n2CCc1ccccc1)c1ccc(Cl)cc1Cl (stereo unspecified) 40%
COc1ccccc1-c1cc2nc(C)c(CCC(=O)Nc3ccc(Br)c(C)c3)c(C)n2n1 -0.566%
CCOc1ccccc1NC(=O)C1CCCN(S(=O)(=O)c2c(C)[nH]c(=O)[nH]c2=O)C1 (stereo unspecified) 0.388%
CCOc1ccc(/C=C(\C#N)c2nc3ccccc3c(=O)[nH]2)cc1OC -3.5%
CCOC(=O)N1CCc2c(sc(NCc3cccc(F)c3)c2C(=O)Nc2ccccc2OCC)C1 -14.8%
Cc1nc(N2C(=O)c3oc4ccccc4c(=O)c3C2c2cccc(OCCC(C)C)c2)sc1C (stereo unspecified) -0.0647%
Cc1ccc(N2CC(NC(=O)Cc3cccs3)CC2=O)cc1C (stereo unspecified) 0.381%
O=C(CSc1nnc(-c2ccccc2)c(-c2ccccc2)n1)NC1CCCCC1 -9.32%
CCOc1ccc(-c2nonc2NC(=O)c2oc3ccc(Br)cc3c2C)cc1 -3.86%
O=C(O)c1cn(-c2ccc(F)cc2)c2cc(N3CCNCC3)c(F)cc2c1=O -18%
CCc1nc2ccc(C(=O)N3CCN(c4ccccc4)CC3)cc2nc1CC -33.1%
COc1ccc2c(c1)CCc1c(C(=O)Nc3ccc(F)c(Cl)c3)noc1-2 6.03%
COC(=O)c1nnn(CC(=O)NC(=O)Nc2cccc(C)c2C)c1C(=O)OC -8.14%
COc1ccc(NC(=O)c2cc(S(=O)(=O)N3CCCCC3)cn2C)cc1Cl 1.48%
O=C(Nc1ccc(S(=O)(=O)N2CCCCC2c2cccnc2)cc1)c1ccc(F)cc1 (stereo unspecified) 32.2%
CN(C)c1ccc(-c2noc(C3CC(=O)N(c4ccc5c(c4)OCCO5)C3)n2)cc1 (stereo unspecified) -0.164%
O=C(Nc1ccc(Cl)cc1)c1cc2c(Cl)nc3ccccc3c2s1 4.05%
Cc1cccc(N(C)C(=O)c2cc(S(=O)(=O)N3CCCCC3)c[nH]2)c1 -2.08%
CCc1nnc2c3ccccc3nc(Nc3ccc(F)c(Cl)c3)n12 48%
CCCC(CCC)C(=O)Nc1nnc2n1CCS2 31.9%
COC(=O)CSc1nc2sc3c(c2c(=O)n1Cc1ccccc1)CCC(C(C)(C)C)C3 (stereo unspecified) -19.6%
COc1cc(C(=O)OCCCN2CCCN(CCCOC(=O)c3cc(OC)c(OC)c(OC)c3)CC2)cc(OC)c1OC 38.1% and -9.64%
COc1ccccc1C(=O)N1c2ccccc2C(C)(c2ccc(Cl)cc2)CC1(C)C (stereo unspecified) -23.7%
COC(=O)C1=C(C)NC(C)=C([N+](=O)[O-])C1c1ccccc1C(F)(F)F (stereo unspecified) -11.7%
